# According to PubChem BioAssay AID485344 (National Center for Advancing Translational Sciences (NCATS), 2010):
# Screen size: about 340,000 compounds; about 6,900 (2%) were called active. The list shows a part of the results, in another mix than the full data. Entries without a call were filed so in the source.
# Target: D(2) dopamine receptor (Homo sapiens) (UniProt P14416)
# Experiment: HTS Assay for Allosteric Antagonists of the Human D2 Dopamine Receptor: Primary Screen for Antagonists; note: 0% is about no effect
# Settings: HEK293 TREx D2 cells, calcium flux, dopamine EC80; at 10 µM; stronger effect = higher value
# How it was run: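 Calcium mobilization kinetics were recorded at 1 s intervals in tetracycline-induced HEK293 T-REx D2 cells, first for 180 s after compound addition and then 180 s after EC80 dopamine.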
# Sequence of UniProt P14416 (P14416 whole entry, looked up): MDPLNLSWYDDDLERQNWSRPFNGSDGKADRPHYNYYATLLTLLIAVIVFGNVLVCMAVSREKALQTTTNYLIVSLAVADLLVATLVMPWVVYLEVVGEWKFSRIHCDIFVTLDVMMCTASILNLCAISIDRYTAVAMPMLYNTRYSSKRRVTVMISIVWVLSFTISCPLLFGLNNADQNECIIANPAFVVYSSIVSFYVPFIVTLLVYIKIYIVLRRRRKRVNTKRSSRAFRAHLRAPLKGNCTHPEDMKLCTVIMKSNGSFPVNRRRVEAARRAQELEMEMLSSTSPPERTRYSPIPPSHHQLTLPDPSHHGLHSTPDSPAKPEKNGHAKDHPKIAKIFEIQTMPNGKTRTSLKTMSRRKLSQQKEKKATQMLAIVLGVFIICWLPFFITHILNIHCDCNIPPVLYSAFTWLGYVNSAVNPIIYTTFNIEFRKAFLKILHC
row,Compound,inhibition
1,CCNC(=O)CCSc1nnc(-c2ccc(O)cc2)o1,1.41%
2,CCC(Oc1ccc(F)cc1)C(=O)Nc1cc(-c2ccc(C)cc2)no1 (configuration not stated),9.65%
3,COc1cccc(CNC(=O)Nc2cc(C(=O)NCc3cccc(F)c3)ccc2N2CCCC2)c1,-22.6%
4,COC(=O)c1cc(NS(=O)(=O)c2ccc3c(c2)OCCO3)ccc1Cl,-0.0067%
5,CCOc1ccccc1NC(=O)CSc1nc2ccccc2nc1N1CCOCC1,14.7%
6,Cc1cc(F)ccc1NC(=O)c1csc2c1CCC(C)C2 (configuration not stated),11.4%
7,Cc1ccccc1NC(=O)CSc1c(C(C)C)cnc2c1c(=O)n(C)c(=O)n2C,-22.5%
8,CCN(CC)S(=O)(=O)c1ccc(NC(=O)Cn2ncc3c([nH]c4ccccc43)c2=O)cc1,8.4%
9,Cc1[nH]c2ccc(C(=O)N3CCN(c4ccccc4F)CC3)cc2c1C,-0.302%
10,CC(Oc1ccccc1)C(=O)Nc1ccc(C(=O)OCc2cc(=O)n3nc(C(C)C)sc3n2)cc1 (configuration not stated),2.18%
11,O=C(NCCc1ccc(F)cc1)C(=O)NCC(c1ccco1)S(=O)(=O)c1ccccc1 (configuration not stated),-17.4%
12,CCOc1ccc(/C=C/c2nc(C#N)c(N3CCN(CC)CC3)o2)cc1,-13.9%
13,CCc1ccc(NC(=O)CSc2nc3nc(C)cc(C)n3n2)cc1,3.18%
14,COc1ccc(-c2noc(N3CCC(C(=O)Nc4cccc(C)c4C)CC3)n2)cc1,-13.8%
15,COc1ccc(CCNC(=O)c2ccc3c(c2)CCN3S(=O)(=O)c2ccccc2)cc1,-6.92%
16,CCOc1cc(CNC(=O)c2cc(-c3ccccc3)n[nH]2)cc(OCC)c1OCC,3.17%
17,COc1ccc(NC(=O)c2oc3ccc(S(=O)(=O)N4CCOCC4)cc3c2C)c(OC)c1,25.3%
18,COc1ccc(CCNC(=O)c2cnn(-c3ccc(F)cc3)c2C2CCN(C(=O)OC(C)(C)C)CC2)cc1OC,-2.06%
19,COc1ccc(N2CCN(C(=O)c3cc4c(=O)n(Cc5cccnc5)ccc4nc3C)CC2)cc1,-8.08%
20,O=C(CN1C(=O)C2(SCC(=O)N2c2ccc(F)c(F)c2)c2ccccc21)NCCc1ccccc1 (configuration not stated),6.84%
21,CCOc1cc(C(c2c(C)[nH]n(-c3ccccc3)c2=O)c2c(C)[nH]n(-c3ccccc3)c2=O)ccc1O,10.5%
22,CCc1ccccc1NC(=O)CN(C)S(=O)(=O)c1cccc2nsnc12,-11.3%
23,CCN(CC)c1ccc(NC(=O)c2c(C)nn(-c3ccc(F)cc3)c2-n2cccc2)c(C)c1,-2.27%
24,COc1ccc(OC)c(NC(=O)c2c(NCc3cccs3)sc3c2CCCCC3)c1,1.15%
25,COc1ccc(-c2ccc(NS(=O)(=O)c3ccc(NC(C)=O)cc3)cc2)nn1,6.21%
26,Fc1ccccc1Nc1c2c(nc3ccccc13)CCC2,9.18%
27,COc1cccc2cc(C(=O)N3CCN(c4cc(C)ccc4C)CC3)c(=O)oc12,8.48%
